According to article PMC4336329 (PLoS ONE, 2015):
About 2,200 (0.71%) of roughly 310,000 compounds showed an effect of 50% or more. The effect is printed as a negative number. The list shows a part of the results.

Target: human ether-à-go-go-related gene (hERG) potassium channel (human, UniProt Q12809)
Experiment: primary screen, population patch clamp on CHO cells stably expressing hERG

Sequence of human ether-à-go-go-related gene (hERG) potassium channel (Q12809 whole entry, looked up): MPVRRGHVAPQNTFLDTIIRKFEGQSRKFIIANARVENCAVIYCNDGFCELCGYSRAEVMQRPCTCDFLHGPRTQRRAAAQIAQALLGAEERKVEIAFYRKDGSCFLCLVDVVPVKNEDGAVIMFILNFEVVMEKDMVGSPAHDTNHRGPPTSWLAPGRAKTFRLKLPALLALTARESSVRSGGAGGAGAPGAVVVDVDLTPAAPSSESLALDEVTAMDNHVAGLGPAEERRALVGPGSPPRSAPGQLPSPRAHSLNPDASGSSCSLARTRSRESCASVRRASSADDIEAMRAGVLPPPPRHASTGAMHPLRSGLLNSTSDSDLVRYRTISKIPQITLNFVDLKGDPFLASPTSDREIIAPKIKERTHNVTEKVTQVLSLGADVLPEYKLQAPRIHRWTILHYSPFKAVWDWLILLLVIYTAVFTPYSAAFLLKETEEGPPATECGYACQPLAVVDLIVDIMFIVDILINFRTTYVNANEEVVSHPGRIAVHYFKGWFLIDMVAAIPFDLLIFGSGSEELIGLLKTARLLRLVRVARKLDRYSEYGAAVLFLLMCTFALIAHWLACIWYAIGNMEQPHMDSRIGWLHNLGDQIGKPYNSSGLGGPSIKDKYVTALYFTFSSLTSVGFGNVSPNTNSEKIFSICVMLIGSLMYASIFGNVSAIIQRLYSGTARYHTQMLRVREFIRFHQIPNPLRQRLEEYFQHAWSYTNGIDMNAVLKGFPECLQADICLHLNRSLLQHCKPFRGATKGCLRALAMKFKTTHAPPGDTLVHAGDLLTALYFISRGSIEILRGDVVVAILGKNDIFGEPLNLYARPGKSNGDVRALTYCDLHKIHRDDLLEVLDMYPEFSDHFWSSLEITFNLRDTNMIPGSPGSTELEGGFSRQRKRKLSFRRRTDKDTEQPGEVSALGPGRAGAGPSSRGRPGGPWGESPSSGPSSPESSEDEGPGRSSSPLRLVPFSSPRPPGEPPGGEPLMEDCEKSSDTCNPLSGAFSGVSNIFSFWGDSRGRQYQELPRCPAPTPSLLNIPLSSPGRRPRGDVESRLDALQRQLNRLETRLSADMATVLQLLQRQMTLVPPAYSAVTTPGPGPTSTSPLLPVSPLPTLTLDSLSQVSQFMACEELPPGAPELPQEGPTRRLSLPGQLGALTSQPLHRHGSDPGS

SMILES	hERG current change (%, negative = inhibition) at 1uM [%]
Cc1noc2ncnc(Oc3ccc(C(C)(C)C)cc3)c12	8
CCSc1ccccc1C(=O)n1nnc2ccccc21	10.1
O=C(/C=C/c1cccs1)N1CCOCC1	12.8
Cc1cc(Nc2cccc(F)c2)n2c(n1)nc1ccccc12	7.86
CN(C)CC/C=C1/c2cc(F)ccc2Sc2ccc(Cl)cc21.Cl	4.37
Cc1ccc(-n2c(SCC(=O)N/N=C/c3ccccc3OCC(=O)O)nc3ccccc3c2=O)cc1	11
O=c1c2ccccc2nc(-c2ccccc2)n1Cc1ccc(Cl)cc1	8.65
O=C(Nc1ccccc1Cl)Oc1ccc(Cl)cc1Cl	12.1
CCOc1c(C)cnc2c1c(=O)n(Cc1ccc(Cl)cc1)c(=O)n2C	11.9
Cc1ccc(S(=O)(=O)N2CCC(C(=O)N(C)C3CCS(=O)(=O)C3)CC2)cc1 (stereo not shown)	3.49
COc1ccc(CCN2C(=O)C3C4C=CC(C4)C3C2=O)cc1OC (stereo not shown)	7.3
CS(=O)(=O)c1ccc(C(=O)OC2CCOC2=O)cc1[N+](=O)[O-] (stereo not shown)	16.7
COc1cc2ccccc2cc1C(=O)NC(=S)Nc1cccc(C(=O)O)c1C	11
Cc1cccn2c(=O)c3cc(C#N)c(=O)n(-c4c(C)n(C)n(-c5ccccc5)c4=O)c3nc12	-0.718
O=C(C1=C[C@@H](c2ccc(Br)cc2)C[C@@H](OCc2ccc(CO)cc2)O1)N1CCOCC1	3.5
O=C(NCc1ccc(F)cc1)C1CCCN(S(=O)(=O)c2ccc(Br)s2)C1 (stereo not shown)	-1.1
COCCCNC(=S)N1CCCN(c2nc3cc(C)ccc3cc2C#N)CC1	-10.4
CC1(N2CCOCC2)CC2(O)C(=[N+]1[O-])CCc1nonc12 (stereo not shown)	16.8
COc1ccc(NC(=O)N2C3CCCC2CC(NC(=O)C2CC2)C3)cc1 (stereo not shown)	18.4
Cc1nc(-c2cccc(Cl)c2)n[nH]1	13
O=C(NNC(=O)C12CC3CC(CC(C3)C1)C2)c1ccccc1O	6.41
COCCNC(=O)CCc1nnc2ccc(N3CCC(C)CC3)nn12	19.8
COc1ccc(C2=NOC(C(=O)Nc3cc(C)on3)C2)cc1OC (stereo not shown)	5.71
CSCC[C@H](NC(=O)N1CCn2c1nc1ccccc12)C(=O)NCc1ccccc1	17.9
Cc1ccc(S(=O)(=O)N2CCN(C(=O)Cn3nc(C(=O)O)c4ccccc4c3=O)CC2)cc1	15.4
CCOc1cc(/C=C(/C#N)C(=O)Nc2ccc(O)cc2)cc(Br)c1O	4.59
Cc1nn(CC(=O)N(C)C2CCS(=O)(=O)C2)c(C)c1S(=O)(=O)N(C)C (stereo not shown)	5.66
CCOC(=O)C1=NN(C(=O)c2ccc(OC)cc2)C(O)(c2ccc(Cl)cc2)C1 (stereo not shown)	6.32

SMILES	hERG current change (%, negative = inhibition) at 1uM [%]
N#Cc1ccc(CSc2nnc(-c3ccccc3)n2Cc2ccco2)cc1	-34.4
Br.CN1C(c2ccc(F)cc2)=CS/C1=C(/C#N)c1nnc(N2CCOCC2)n1-c1ccccc1	-8.89
COc1ccc(NC(=O)C2=C(C)NC(=O)NC2c2cccc(OC)c2OC)c(OC)c1 (stereo not shown)	18.3
COc1ccc(CCN(Cc2cc3cc(C)ccc3[nH]c2=O)C(=O)N2CCCC2)cc1OC	-4.9
COc1ccc(/C=C2/C(=O)N(Cc3ccccc3)N=C2C)cc1	6.37
O=C(c1cccc2ccccc12)C1CCCN(C(=O)CCN2CCCO2)C1 (stereo not shown)	5.74
CC(=O)Nc1ccc(C(=O)CN2CCN(c3ccccc3)CC2)cc1	9.15
COc1ccc(C2=CC3=CC(=O)C(C)(O)C(=O)C3=CO2)cc1 (stereo not shown)	6.74
NS(=O)(=O)c1ccc(CNC(=O)c2cc(-c3ccccc3)nc3ccccc23)cc1	6.11
COc1ccccc1C(=O)NCC(=O)OC(C)C(=O)NC(=O)NC1CCCCC1 (stereo not shown)	8.93
O=C(NCc1ccco1)c1ccc2c(c1)N(Cc1ccccc1)CCS2	3.71
CCCC(c1nnnn1Cc1cccs1)N1CCN(c2nc3ccccc3s2)CC1 (stereo not shown)	9.82
Cc1cc(OC(C)C(=O)Nc2ccc(S(=O)(=O)Nc3onc(C)c3C)cc2)cc(C)c1Cl (stereo not shown)	-0.475
C=CCn1c(NCc2ccc(OC)cc2)nc2ccccc21	12.9
Cc1ccsc1C(=O)OCc1nc2ccsc2c(=O)[nH]1	5.07
Cc1cc(C)c(NS(=O)(=O)c2ccc(NC(=O)c3cccs3)cc2)c(C)c1	10.6
Cc1ccc(S(=O)(=O)N2CCN(C(=O)COC(=O)/C=C/c3ccccc3[N+](=O)[O-])CC2)c(C)c1	20
COc1ccc(NS(=O)(=O)c2ccc3c(c2)CCCN3C(C)=O)cc1	3.91
Cc1ccc(CC(=O)Nc2cc(C)on2)cc1	3.37
CCOc1ccc(-n2c(O)c(C=Nc3ccc(N4CCOCC4)cc3)c(=O)[nH]c2=O)cc1	6.19
COCCCNC(=S)N1CCC(C(=O)c2ccc(Cl)cc2)CC1	10.5
COc1ccc(Cn2c(=O)cc(C)[nH]c2=S)cc1	10.3
CC(=NCc1ccc2c(c1)OCO2)c1c(O)[nH]c(=O)[nH]c1=O	-2.99
Cc1nn(-c2ccc(C(=O)NCC(c3ccco3)N3CCCC3)cc2)c(C)c1Cl (stereo not shown)	5.69
COc1ccc(-n2c(SCC#N)nnc2-c2ccc(NS(=O)(=O)c3ccc(C)cc3)cc2)cc1	2.5
Clc1cccc(CSc2nnc(-c3cccnc3)n2Cc2ccco2)c1	-61
COc1ccccc1OCC(O)CN1CCN(C(=O)c2ccccc2)CC1.Cl (stereo not shown)	10.4
